Data taken from patent US11299538B2, “Anti-IGF antibodies” (Boehringer Ingelheim International GmbH, priority 2008, dated 2022).

Experiments:
Rat IGF-1 = target: T1, Rat IGF-1 (Rattus norvegicus, UniProt P08025); test: direct immunosorbent assay (ELISA) binding titration; conditions: FIG. 1C
T1 construct: Insulin-like growth factor-1 (IGF-1; a 70 amino-acid polypeptide)
Method: (§1) Fully human IgG1 antibodies that bound with high affinity to IGF-1 are also tested for binding to human IGF-1 in direct immunosorbent assays (ELISA). Assays are performed by coating human IGF-1 (R&D Systems, No. 291-G1) to 96-well Maxisorb plates at a concentration of 0.5 μg/ml overnight at 4° C. (100 μl/well). Coating buffer alone is used as a control for unspecific binding. Wells are then washed once with washing buffer (1×TBS-T) and residual binding sites are blocked with 200 μl blocking buffer for 1 hour at room temperature on an orbital shaker followed by a further wash cycle. Serial three-fold dilutions of each test antibody in blocking buffer are prepared directly on the coated plates. Typical concentrations used are 50, 16.6, 5.6, 1.8, 0.6, 0.2, and 0.07 ng/ml. Blocking buffer alone is used as a positive control. The plates are then incubated for 2 hours at room temperature with agitation. After three wash cycles 100 μl/well of HRPO-conjugated anti-human IgG secondary reagent (Jackson ImmunoResearch Inc.) diluted in blocking buffer is added to all wells. After 2 hours incubation at room temperature with agitation the plates are washed three-times and 100 μl/well of TMB substrate solution (equal amounts of solution A and B) are pipetted into all wells. The plates are incubated for 10-20 min at RT with agitation and then the reaction is stopped by addition of 100 μl/well 1 M phosphoric acid. The absorbance is measured at a wavelength of 450 nm (reference 650 nm).
(§2) Binding of the fully human IGF-1 binding IgG1 antibodies to mouse IGF-1 (R&D Systems, No. 791-MG), rat IGF-1 (IBT, No. RU100), human IGF-2 (GroPep, No. FM001), mouse IGF-2 (R&D Systems, No. 792-MG), rat IGF-2 (IBT, No. AAU100), and human insulin (Roche) is also tested as described above for human IGF-1 (except that the concentration of human insulin used for coating is 3 μg/ml).

human insulin = target: T2, human insulin (Homo sapiens, UniProt P01308); test: as above; conditions: highest concentration tested, 50 ng/ml; FIG. 1G
T2 construct: purchased Roche
T2 sequence (P01308 25-54 limits assumed): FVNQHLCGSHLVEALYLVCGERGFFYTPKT
T2 sequence (P01308 90-110 limits assumed): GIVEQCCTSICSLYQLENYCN
Method: as §1, §2

Rat IGF-2 = target: T3, Rat IGF-2 (Rattus norvegicus, UniProt P01346); test: as above; conditions: FIG. 1F
T3 construct: insulin-like growth factor-2 (IGF-2; a 67 amino-acid polypeptide)
T3 sequence (P01346 25-91 limits assumed): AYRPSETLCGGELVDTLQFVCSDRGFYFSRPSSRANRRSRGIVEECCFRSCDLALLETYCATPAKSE
Method: as §1, §2

Human IGF-2 = target: T4, Human IGF-2 (Homo sapiens, UniProt P01344); test: as above; conditions: FIG. 1D
T4 construct: insulin-like growth factor-2 (IGF-2; a 67 amino-acid polypeptide)
T4 sequence (P01344 25-91 limits assumed): as the sequence (P01346 25-91 limits assumed) above, with S22G, S32A, A35V, N36S counted along it
Method: as §1, §2

Mouse IGF-2 = target: T5, Mouse IGF-2 (Mus musculus, UniProt P09535); test: as above; conditions: murine IGF-2; FIG. 1E
T5 construct: insulin-like growth factor-2 (IGF-2; a 67 amino-acid polypeptide)
T5 sequence (P09535 25-91 limits assumed): as the sequence (P01346 25-91 limits assumed) above, with R3G, S5G counted along it
Method: as §1, §2

Mouse IGF-1 = target: T6, Mouse IGF-1 (Mus musculus, UniProt P05017); test: as above; conditions: FIG. 1B
T6 construct: Insulin-like growth factor-1 (IGF-1; a 70 amino-acid polypeptide); purchased R&D Systems 791-MG
T6 sequence (P05017 49-118 limits assumed): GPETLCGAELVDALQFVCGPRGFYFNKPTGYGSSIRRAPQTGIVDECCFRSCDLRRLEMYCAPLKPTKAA
Method: as §1, §2

total serum IGF-1 [1] = test: effect on total murine serum IGF-1 levels; type: in vivo, athymic NMRI nude mice; conditions: mice; 24 hours post single i.v. doses of 25, 12.5, 6.25, 3.13 mg/kg; FIG. 6
Method: (§3) Single intravenous (bolus) administrations of 25, 12.5, 6.25, and 3.13 mg/kg of test IGF antibody are given to female athymic NMRI nude mice, 6-8 weeks old (n=5). Single 10 minute intravenous administrations of 30, 100, 200 mg/kg of antibody 60819 are given to male and female Wistar Han rats, 6-8 weeks old (n=4 male, 4 female). Prior to antibody treatment and 24 hours post administration a blood sample is taken, serum collected, and total murine or rat IGF-1 levels determined using the OCTEIA rat/mouse total IGF-1 immunocytometric assay. The assay is performed according to the manufacturer's instructions, absorbance is measured at 450 nm and evaluated using the SoftMax Pro software. A standard curve is used to determine the serum concentration of total IGF-1 in ng/ml. Statistical analysis is performed using the GraphPad Prism software.

phosphorylation of AKT = test: Western blot analysis of phosphorylated AKT in SK-ES-1 cells; type: cell-based; conditions: 24 hours, 100 nM doses, FIG. 9
Method: (§4) 24 hours later the cells are lysed and the cell lysate frozen after the protein concentration is determined by Bradford assay. Western blotting is performed by applying 30 μg of protein lysates to an SDS PAGE gel (BioRad) and the gel blotted on a Citerian gel blotting sandwich. Western blots are incubated overnight with a rabbit anti-beta actin (control) antibody, a rabbit anti-PTEN antibody (Cell Signaling #9559), or a rabbit anti-phospho-pAKT antibody (Cell Signaling #4060), at 1:5000 (anti-beta actin), 1:1000 (anti-PTEN), or 1:2000 (anti-phosphoAKT) dilutions in 1% milk powder. Following washing in TBS an anti-rabbit IgG HRPO-conjugated secondary antibody (Amersham) is applied for 1 hour and after further washes in TB S antibody reactivity is detected by ECL and captured on Hyperfilm (Amersham).

SK-ES-1 cells = test: Ewing's sarcoma-derived cell line growth assay, combination with rapamycin; type: cell-based; conditions: 100 nM (each agent), FIG. 8
Method: (§5) The typical concentrations used are 30, 10, 3.3, 1.1, 0.37, and 0.12 μg/ml (or 100, 10, 1, 0.1, 0.01, 0.001 nM rapamycin and test antibody for combination studies) and each dilution is performed in triplicate wells. The cells plus antibody are then incubated for 120 hours after which time the relative cell number in each well is determined using the CellTiter-Glo luminescent cell viability assay (Promega). Luminescence (LU=Luminescence Units) is recorded using a XFluor GENios Pro 4 and for data analysis the mean value from triplicate wells is taken and fitted by iterative calculations using a sigmoidal curve analysis program (Graph Pad Prism) with variable Hill slope.

[2] = test system: NSCLC-derived cell line A-549; test: in vitro combination of anti-IGF antibody with EGFR inhibitor, proliferation; type: cell-based; conditions: 10% FCS containing growth medium; FIG. 10
PTEN = test: Western blot analysis of PTEN levels in SK-ES-1 cells; type: cell-based; conditions: 24 hours, 100 nM doses, FIG. 9
Method: as §4

TC-71 cells = test: Ewing's sarcoma-derived cell line growth assay; type: cell-based; conditions: medium containing 10% FCS; relative to humanized IgG1 isotype control; FIG. 5
Method: as §5

total serum IGF-1 [3] = test: effect on total rat IGF-1 levels; type: in vivo, Wistar Han rats; conditions: rats; 24 hours post single 10 minute i.v. infusion of 30, 100, 200 mg/kg; FIG. 7
Method: as §3

T1 sequence (P08025 49-118 limits assumed): as the sequence (P05017 49-118 limits assumed) above, with A69S counted along it

Molecule | ELISA binding (Rat IGF-1) | ELISA reactivity to human insulin (human insulin) | ELISA binding (Rat IGF-2) | ELISA binding (Human IGF-2) | ELISA binding (Mouse IGF-2) | ELISA binding (Mouse IGF-1) | serum total murine IGF-1 levels (total serum IGF-1 [1]) | phosphorylation of AKT (phosphorylation of AKT) | proliferation inhibition (SK-ES-1 cells) | effect on A-549 cell proliferation [2] | total levels of PTEN (PTEN) | effect on TC-71 cell proliferation (TC-71 cells) | total rat IGF-1 levels (total serum IGF-1 [3])
60814: fully human IgG1/Igλ anti-IGF antibody; heavy chain SEQ ID NO:35, light chain SEQ ID NO:36 (antibody, listed as Homo sapiens) heavy: QVELVESGGGLVQPGGSLRLSCAASGFTFSNYWMHWVRQAPGKGLEWVSGISGWSSWTYYADSVKGRFTISRDNSKNTLYLQMNSLRAEDTAVYYCARFGIDAYTKVYFDYWGQGTLVTVSS[human IgG1 constant region left out here] light: DIELTQPPSVSVAPGQTARISCSGDNIPLKYVSWYQQKPGQAPVLVIHDDNKRPSGIPERFSGSNSGNTATLTISGTQAEDEADYYCSSWDTLDIFNVFGGGTKLTVLGQPKAAPSVTLFPPSSEELQANKATLVCLISDFYPGAVTVAWKGDSSPVKAGVETTTPSKQSNNKYAASSYLSLTPEQWKSHRSYSCQVTHEGSTVEKTVAPTECS | comparable cross-reactive binding | no reactivity | comparable cross-reactive binding | comparable cross-reactive binding | comparable cross-reactive binding | comparable cross-reactive binding |  |  |  |  |  |  | 
60819: fully human IgG1/Igλ anti-IGF antibody; heavy chain SEQ ID NO:37, light chain SEQ ID NO:38 (antibody, listed as Homo sapiens) heavy: QVELVESGGGLVQPGGSLRLSCAASGFTFSNYWMHWVRQAPGKGLEWVSGISGWSSWTYYADSVKGRFTISRDNSKNTLYLQMNSLRAEDTAVYYCARFGIDAYTKVYFDYWGQGTLVTVSS[human IgG1 constant region left out here] light: DIELTQPPSVSVAPGQTARISCSGDNIPLKYVSWYQQKPGQAPVLVIHDDNKRPSGIPERFSGSNSGNTATLTISGTQAEDEADYYCQSYDYFPKFVVFGGGTKLTVLGQPKAAPSVTLFPPSSEELQANKATLVCLISDFYPGAVTVAWKGDSSPVKAGVETTTPSKQSNNKYAASSYLSLTPEQWKSHRSYSCQVTHEGSTVEKTVAPTECS | comparable cross-reactive binding | no reactivity | comparable cross-reactive binding | comparable cross-reactive binding | comparable cross-reactive binding | comparable cross-reactive binding | dose dependent elevation | inhibited AKT phosphorylation | around 60% | only a small effect | do not affect | dose-dependent inhibition | dose dependent elevation
